Assay results published in patent US20260242455A1 (SCHOLAR ROCK, published 2026).

Assays:
murine pro-myostatin [1] = target: T1, murine pro-myostatin (mouse, UniProt O08689 25-376); experiment: ForteBio BLI
T1 construct: Recombinant in the BLI and reporter assays; endogenous mouse protein in the immunoprecipitation and immunofluorescence experiments; also called proGDF8 (mouse); Murine ProGDF8

murine latent myostatin [2] = target: T2, murine latent myostatin (mouse, UniProt O08689 25-267; O08689 268-376, Non-covalent complex of prodomain and growth factor; disulfide-linked homodimer, one copy of each chain is given.); experiment: ForteBio BLI
T2 construct: recombinant in BLI, endogenous in serum immunoprecipitation; also called Murine Latent GDF8; copies: 2 + 2

[3] = target: murine pro + latent GDF11 (murine, UniProt Q9Z1W4 21-405, limits assumed); experiment: ForteBio BLI
murine latent GDF11 = murine latent GDF11 (murine, UniProt Q9Z1W4 21-296; Q9Z1W4 297-405, limits assumed); experiment: ForteBio BLI
murine pro-myostatin [4] = target: T1, murine pro-myostatin; experiment: cell-based or functional assay
murine pro-myostatin [5] = target: T1, murine pro-myostatin; experiment: cell-based or functional assay; remark: listed apart in the source
CD64 (FcgRI) = CD64 (FcgRI) (UniProt P12314 16-288, limits assumed); experiment: ELISA, relative to Ab1-G1
C1q = target: T3, C1q (UniProt P02745; P02746; P02747); experiment: ELISA, relative to Ab1-G1
T3 construct: the three subunits are from general knowledge; also called complement component C1q

murine pro-myostatin [6] = target: T1, murine pro-myostatin; experiment: ForteBio Octet BLI kinetics
murine pro-myostatin [7] = target: T1, murine pro-myostatin; experiment: BLI, antibody on anti-human Fc capture tip, analyte 200 to 0.82 nM, global fit
murine latent myostatin [8] = target: T2, murine latent myostatin; experiment: as above

Kd (murine pro-myostatin [1]): 2.3 nM | Kd (murine latent myostatin [2]): 2 nM | binding result [3]: no binding (tested: 200 nM) | binding result (murine latent GDF11): no binding (tested: 200 nM) | Activity Assay - 293T cells EC50 (murine pro-myostatin [4]): 714 nM | EC50 Activation Assay (murine pro-myostatin [5]): 174 nM | Relative CD64 Binding @ EC50(%) (CD64 (FcgRI)): 5% | Relative C1q Binding @ EC50(%) (C1q): 8% | Kd (murine pro-myostatin [6]): 8.39 nM | Kd (murine pro-myostatin [7]): 2.3 nM | Kd (murine latent myostatin [8]): 2 nM
B1: Ab2 (germlined Ab1), IgG4 (S228P)/lambda (antibody)
heavy: QVQLVESGGGVVQPGRSLRLSCAASGFTFSSYGMHWVRQAPGKGLEWVAVISYDGSNKYYADSVKGRFTISRDNSKNTLYLQMNSLRAEDTAVYYCARDLLVRFLEWSHYYGMDVWGQGTTVTVSSASTKGPSVFPLAPCSRSTSESTAALGCLVKDYFPEPVTVSWNSGALTSGVHTFPAVLQSSGLYSLSSVVTVPSSSLGTKTYTCNVDHKPSNTKVDKRV[human IgG4 Fc with S228P (EU numbers) not shown]
light: QSVLTQPPSASGTPGQRVTISCSGSSSNIGSNTVHWYQQLPGTAPKLLIYSDNQRPSGVPDRFSGSKSGTSASLAISGLQSEDEADYYCAAWDDSLNGVFGGGTKLTVLGQPKAAPSVTLFPPSSEELQANKATLVCLISDFYPGAVTVAWKADSSPVKAGVETTTPSKQSNNKYAASSYLSLTPEQWKSHRSYSCQVTHEGSTVEKTVAPTECS
